Assay results: PubChem BioAssay AID720708 (National Center for Advancing Translational Sciences (NCATS), 2013)
The campaign covered roughly 360,000 compounds. About 660 (0.18%) were called active. The shares of active, inactive and inconclusive entries below differ from those in the screen. Calls come from the whole dose curve; as a rule, active = well fitted inhibition curve with a large enough effect; inconclusive = small, poorly fitted or top-dose-only effect; inactive = no such curve, though single readings can be large or run the other way. Potencies of inconclusive entries are left out as doubtful fits.

Molecular target: Rap guanine nucleotide exchange factor 4 (Homo sapiens) (UniProt Q8WZA2)
UniProt Q8WZA2, sequence (Q8WZA2 whole entry, looked up): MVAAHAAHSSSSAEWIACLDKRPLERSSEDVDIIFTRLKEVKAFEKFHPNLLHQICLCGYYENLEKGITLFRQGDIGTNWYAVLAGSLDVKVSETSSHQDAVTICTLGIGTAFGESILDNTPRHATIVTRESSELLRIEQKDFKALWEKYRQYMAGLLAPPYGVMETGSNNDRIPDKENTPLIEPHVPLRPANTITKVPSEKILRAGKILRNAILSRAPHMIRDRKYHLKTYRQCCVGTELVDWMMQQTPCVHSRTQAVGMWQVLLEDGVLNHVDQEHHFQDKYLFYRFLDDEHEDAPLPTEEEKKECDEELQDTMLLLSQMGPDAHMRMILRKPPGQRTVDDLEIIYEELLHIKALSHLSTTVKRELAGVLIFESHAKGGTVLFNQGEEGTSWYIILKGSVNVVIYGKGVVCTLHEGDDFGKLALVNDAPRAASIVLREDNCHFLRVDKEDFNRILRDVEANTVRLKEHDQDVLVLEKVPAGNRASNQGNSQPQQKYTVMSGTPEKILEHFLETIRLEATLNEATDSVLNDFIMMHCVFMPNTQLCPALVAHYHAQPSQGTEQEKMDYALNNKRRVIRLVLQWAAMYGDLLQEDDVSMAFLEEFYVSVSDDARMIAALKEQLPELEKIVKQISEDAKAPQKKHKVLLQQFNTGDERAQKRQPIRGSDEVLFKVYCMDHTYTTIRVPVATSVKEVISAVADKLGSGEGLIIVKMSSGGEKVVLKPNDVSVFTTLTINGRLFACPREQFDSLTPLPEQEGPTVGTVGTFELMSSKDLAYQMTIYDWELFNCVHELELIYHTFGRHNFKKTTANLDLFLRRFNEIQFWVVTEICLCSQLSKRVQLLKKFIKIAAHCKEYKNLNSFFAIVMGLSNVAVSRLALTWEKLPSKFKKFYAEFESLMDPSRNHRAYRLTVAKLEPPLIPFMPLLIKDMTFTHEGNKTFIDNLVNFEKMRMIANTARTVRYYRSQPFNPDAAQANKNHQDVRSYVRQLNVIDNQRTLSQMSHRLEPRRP
Experiment: qHTS for Antagonist of cAMP-regulated guanine nucleotide exchange factor 2 (EPAC2): primary screen; note: nearly all actives have a fitted effect of over 45% in size
Details: EPAC2 GEF exchange of Rap1B-BODIPY-GDP, fluorescence; series mostly up to 114 µM
Potency is the fitted concentration of half-maximal effect; tags give direction and shape of the fitted curve.

Row | SMILES | Potency
1 | O=C(NCc1nc(-c2ccc(C(F)(F)F)cc2)no1)Nc1ccc(OC(F)(F)F)cc1 | inconclusive [inhibitor, full curve, poor fit]
2 | Cc1cnc(C(=O)NC(Cc2ccccc2)c2ccccc2)cn1 (stereo not given) | inconclusive [inhibitor, partial curve, poor fit]
3 | C=CCNCC(=O)Nc1ccccc1SCC(=O)Nc1ccsc1C(=O)OC | inconclusive [inhibitor, single point]
4 | Cc1ccc(N=C2NC(=O)/C(=C/c3cccn3C)S2)cc1 | inactive
5 | COc1ccc(C2=C(N)c3ccccc3C2=O)cc1 | inactive
6 | N=C1C(c2nc(-c3cccc([N+](=O)[O-])c3)cs2)=C(O)CN1NC(=O)c1ccco1 | inconclusive [inhibitor, single point]
7 | CC(=O)N1c2ccccc2Sc2ccc3ccccc3c21 | inconclusive [inhibitor, partial curve]
8 | O=C1CCC(C(=O)OC(C(=O)c2c[nH]c3ccccc23)c2ccccc2)=NN1 (stereo not given) | inconclusive [inhibitor, partial curve]
9 | O=C(C[C@@H]1C[C@H]2c3cc(NC(=O)C4CCC4)ccc3O[C@H]2[C@@H](CO)O1)NCc1ccc(-c2ccccc2)cc1 | inactive
10 | O=C(NC1CCCCC1)C1c2ccccc2OCC(=O)N1C1CC1 (stereo not given) | inactive
11 | Cc1ccc(S(=O)(=O)N(CC(=O)NCc2cccs2)c2ccccc2)cc1 | inconclusive [inhibitor, partial curve]
12 | O=C1OC(c2ccccc2)/C(=C(/O)c2ccccc2)C1=O (stereo not given) | inconclusive [inhibitor, single point]
13 | Cc1cc(Cl)ccc1OCc1nc(-c2ccc(O)cc2)n[nH]1 | inconclusive [inhibitor, single point]
14 | C[C@@H](CO)NC(=O)c1nc[nH]c1C(=O)N[C@H](C)c1ccccc1 | inactive
15 | Cc1nn(C)c(C)c1NC(=O)COc1ccc(F)cc1Br | inconclusive [inhibitor, partial curve]
16 | OCC1(Cc2cccc(C(F)(F)F)c2)CCN(Cc2cc(F)cc(F)c2)CC1 | inconclusive [inhibitor, partial curve]
17 | O=S(=O)(Nc1ccccc1O)c1ccc(-c2ccccc2)cc1 | inconclusive [inhibitor, partial curve]
18 | Cc1ccc2oc(=O)n(Cc3ccccc3OC(C)C)c2c1 | inconclusive [inhibitor, full curve]
19 | COc1cc2ccccc2cc1C(=O)N1CCc2ccccc21 | inconclusive [inhibitor, partial curve]
20 | CC(=O)N1CCN(S(=O)(=O)c2cccc(C(=O)Nc3ccccc3N3CCCC3)c2)CC1 | inconclusive [inhibitor, full curve, poor fit]
21 | CCOc1ncccc1C(=O)OC(C)C(=O)Nc1ccc(Cl)cn1 (stereo not given) | inconclusive [inhibitor, partial curve]
22 | CC(=O)NS(=O)(=O)c1ccc(NC(=S)NC(=O)CC(C)C)cc1 | inconclusive [inhibitor, partial curve]

Row | SMILES | Potency
23 | O=C(NC(=S)Nc1ccc2c(c1)OCO2)c1ccccc1 | inactive
24 | COc1cc(C)ccc1S(=O)(=O)N1CCCCCC1 | inconclusive [inhibitor, partial curve]
25 | CCOC(=O)COc1ccc2c(c1)c(C(C)=O)c(C)n2-c1ccc(OC)cc1 | inconclusive [inhibitor, single point]
26 | Cc1cc(N2C(=O)c3ccccc3C2=O)n(C)n1 | inactive
27 | COc1cc2c3c(c1)C(C)=CC(C)(C)N3C(=O)C2=O | inconclusive [inhibitor, partial curve]
28 | CCOC(=O)c1c(NC(=O)CSc2nnnn2C)sc(C)c1-c1ccc(C)cc1 | inconclusive [inhibitor, partial curve]
29 | COc1cc(C(c2c(C)[nH][nH]c2=O)c2c(C)[nH][nH]c2=O)ccc1OC(=O)c1cccc([N+](=O)[O-])c1 | inconclusive [inhibitor, partial curve]
30 | CC(OC(=O)C1CSC2(C)CCC(=O)N12)C(=O)Nc1cccc(C#N)c1 (stereo not given) | inactive
31 | COCCNc1c(-c2cc3ccc(C)c(C)c3[nH]c2=O)nc2ccccn12 | inactive
32 | CCOC(=O)C1CCCN(C(=O)c2ccc3c(c2)C(C)(C)CCC3(C)C)CC1 (stereo not given) | inconclusive [inhibitor, partial curve]
33 | Cc1ccc(C(OCC(O)CNCc2ccc(F)cc2)c2ccccc2)cc1 (stereo not given) | inconclusive [inhibitor, full curve]
34 | COc1ccc(C(=O)c2nccc3ccccc23)cc1 | inconclusive [inhibitor, full curve]
35 | COCCOC(=O)C1=C(C)NC(C)=C(C(=O)OCCOC)C1/C=C/c1ccccc1OC | inconclusive [inhibitor, partial curve, poor fit]
36 | COc1ccc2c(-c3ccccc3)cc(N3CCOCC3)nc2c1 | inactive
37 | O=C(CCCC(=O)OCC(F)(F)C(F)F)Nc1ccccc1F | inconclusive [inhibitor, single point]
38 | COc1c(F)cccc1C1=CC(=O)C[C@H](c2ccc(F)cc2)C1 | inconclusive [inhibitor, partial curve]
39 | CCCCc1c(-c2ccc(OC)cc2)ncn1CCc1ccccc1OC | inconclusive [inhibitor, partial curve]
40 | CC1(Cc2ccc(F)c(Cl)c2)C(=O)Nc2c(Cl)cccc21 (stereo not given) | inconclusive [inhibitor, partial curve]
41 | COC(=O)c1cc(-c2ccc(F)cc2)n(-c2ccccc2)n1 | inconclusive [inhibitor, partial curve, poor fit]
42 | COCOCCn1cc(CN2CCS(=O)(=O)N(Cc3ccc(-c4ccncc4)cc3)C(CC(C)C)C2=O)nn1 (stereo not given) | inconclusive [inhibitor, partial curve]
43 | Cc1cc(C)c(S(=O)(=O)c2ccc(F)cc2C)c(Cl)n1 | inconclusive [inhibitor, partial curve]
44 | COc1cc(NC(=O)NS(=O)(=O)c2ccc(C)cc2)cc(OC)c1 | inactive

Row | SMILES | Potency
45 | CC(C)CC1=NN2C(=N)/C(=C\c3coc4ccccc4c3=O)C(=O)N=C2S1 | inactive
46 | COc1ccc(C(=O)Nc2ccc(N3CCCCCC3)cc2)cc1S(=O)(=O)N1CCOCC1 | inconclusive [inhibitor, single point]
47 | Cn1ccc2c(-c3cncc4ccccc34)cc3c(c21)C1CCC3O1 (stereo not given) | inconclusive [inhibitor, partial curve]
48 | Cc1ccc(C(NC(=O)C2CCN(Cc3ccc(Cl)c(Cl)c3)CC2)c2ccccn2)cc1 (stereo not given) | inconclusive [inhibitor, full curve, poor fit]
49 | Nc1ccccc1Oc1ccc2ccccc2c1 | inconclusive [inhibitor, partial curve]
50 | CC(C)c1cccc(-c2csc(C(O)c3ccccc3)n2)c1 (stereo not given) | inconclusive [inhibitor, partial curve]
51 | COC(=O)c1ccc2nc(-c3ccccc3)c(Cc3ccsc3)n2c1 | inconclusive [inhibitor, full curve, poor fit]
52 | Cc1cccc(C)c1-n1nnnc1C(c1ccnc2ccccc12)N(Cc1ccccc1)Cc1ccccc1 (stereo not given) | inconclusive [inhibitor, full curve, poor fit]
53 | C=CCOc1cccc(CNCc2ccncc2)c1 | inconclusive [inhibitor, single point]
54 | C[C@H](c1ccccc1)N1C[C@@H](COCc2ccccc2)Oc2cc(N3CC[C@@H](O)C3)ccc2S1(=O)=O | inconclusive [inhibitor, full curve]
55 | CNc1nc(C)cc(C)c1S(=O)(=O)c1ccc(C)cc1 | inconclusive [inhibitor, full curve]
56 | O=C(COc1ccc2ccccc2c1Br)N1CCCCC1 | inconclusive [inhibitor, partial curve]
57 | COC(=O)C1=CN(Cc2ccc(OC)c(OC)c2)C=C(C(=O)OC)C1c1cccc(F)c1 | inconclusive [inhibitor, partial curve]
58 | CC(C)C[C@H]1CN=C(N(C)C)N1CC1CCCC1 | inconclusive [inhibitor, single point]
59 | COc1cc(Br)c(C(=O)c2nccc3cc(OC)c(OC)cc23)cc1OC | inactive
60 | CC1(C(=O)Nc2ccc(F)c(Cl)c2)Cc2c(-c3ccccc3)ccnc2O1 (stereo not given) | inactive
61 | COC(=O)c1cc(N=Nc2c(C)[nH]c3ccccc23)cc(C(=O)OC)c1 | inactive
62 | CCN(C[C@H]1N[C@@](C)(C(=O)OC)[C@H]2C(=O)N(Cc3ccccc3)C(=O)[C@@H]12)S(=O)(=O)c1ccccc1 | inconclusive [inhibitor, single point]
63 | CCOC(=O)[C@H]1[C@H]2COc3ccc(C)cc3[C@@H]2N2C(=O)c3cc(F)c(F)cc3NC(=O)[C@@]12C | inconclusive [inhibitor, single point]
64 | Cc1ccc(C)c(Cn2nc(-c3ccccc3)ccc2=O)c1 | inconclusive [inhibitor, partial curve]
65 | Cc1ccc(C)c(N2CCN(C(=O)CCc3nc(-c4ccc(Cl)cc4)no3)CC2)c1 | inconclusive [inhibitor, single point]
